Results: the supplement of paper PMC4166925
± gives the standard deviation of the averaged measurements. Whole data set: some 33,000 sequences, median “E-score (dimensionless, -0.5 to 0.5)” near -0.046, cut for the highest 2% near 0.36. The list shows a part of the results.

Tested on: T1, SpTbr T-box DNA-binding domain (GST fusion)
T1 sequence: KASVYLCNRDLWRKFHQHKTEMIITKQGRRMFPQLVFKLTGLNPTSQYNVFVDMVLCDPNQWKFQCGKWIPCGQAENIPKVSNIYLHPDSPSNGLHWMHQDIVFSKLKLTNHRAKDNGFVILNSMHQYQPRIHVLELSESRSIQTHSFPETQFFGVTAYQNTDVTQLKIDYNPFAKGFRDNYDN
Test: PBM E-score of 8-mer (E-score (dimensionless, -0.5 to 0.5)); Tbr is Tbrain of the sea star Patiria miniata (Pm) or the sea urchin Strongylocentrotus purpuratus (Sp); higher = stronger binding preference; most listed sequences are background and not binding sites
Conditions: the construct has about 5 more residues each side
In short: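 Expression of GST-fused Tbr T-box DNA-binding domains, each holding the full T-box plus roughly five flanking residues, was carried out in BL21 E. coli at 20 °C, with purification by glutathione affinity chromatography. Universal Agilent arrays made double-stranded by primer extension were incubated with the protein at 200 nM in PBS (pH 7.5), then scanned and quantified. All ungapped 8-mers were scored from probe intensities, and each received an enrichment E-score from the Universal PBM Analysis Suite, averaged over duplicate arrays.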

| Sequence | PBM E-score of 8-mer |
| --- | --- |
| TATACGGA | -0.0839 ± 0.0093 |
| CCCTTTAA | -0.125 ± 0.018 |
| AAGTTCTC | 0.05 ± 0.063 |
| AGTAAGCG | 0.0237 ± 0.02 |
| CCACCGTC | -0.101 ± 0.0095 |
| TATGCTAA | -0.00225 ± 0.056 |
| CACGCCTG | 0.318 ± 0.08 |
| AAGTACCG | -0.161 ± 0.055 |
| CTGAACGA | -0.254 ± 0.028 |
| ATGCCGTA | -0.217 ± 0.058 |
| CGCATTGC | -0.115 ± 0.078 |
| ATCGAAGA | -0.0874 ± 0.012 |
| GCCCCCAC | -0.133 ± 0.027 |
| CTCCTCTC | 0.0391 ± 0.091 |
| TACAGCCA | -0.206 ± 0.025 |
| TTCCACAA | 0.125 ± 0.07 |
| CGTAATAA | -0.0707 ± 0.057 |
| ACGAGGAC | -0.105 ± 0.073 |
| CGCACTAA | 0.256 ± 0.011 |
| CGTATCGC | 0.201 ± 0.0051 |
| CCTCAAGG | -0.109 ± 0.027 |
| TGGCGTAA | 0.108 ± 0.019 |
| CAAGGCAG | -0.314 ± 0.044 |
| AGGCGTGA | 0.4754 ± 0.0047 |
| ATGCAGGC | -0.291 ± 0.0043 |

| Sequence | PBM E-score of 8-mer |
| --- | --- |
| CGATCCAC | -0.0407 ± 0.042 |
| AAAGAGGC | -0.175 ± 0.05 |
| AAGGGAAT | -0.106 ± 0.046 |
| ACTGACAC | 0.349 ± 0.011 |
| ATTCCACC | -0.15 ± 0.048 |
| GAGCCGAA | -0.082 ± 0.056 |
| AAAACAAC | 0.0735 ± 0.046 |
| CAGGTTGA | -0.0647 ± 0.018 |
| CCTCCATC | -0.0262 ± 0.042 |
| CACATAGG | 0.157 ± 0.045 |
| AAAATAAG | -0.181 ± 0.0025 |
| ATTGCTTC | -0.114 ± 0.019 |
| CGAACGCA | 0.00974 ± 0.014 |
| GCGCCTCA | 0.326 ± 0.0035 |
| ATCGCGGC | 0.15 ± 0.052 |
| CCATGCAG | -0.0129 ± 0.02 |
| ACATTTCT | 0.101 ± 0.0014 |
| AGGGCAAC | -0.0399 ± 0.1 |
| CACTCAAG | 0.106 ± 0.095 |
| AACCGGCA | 0.0916 ± 0.0064 |
| CCCTTAAA | -0.107 ± 0.11 |
| ATTTCCAG | -0.161 ± 0.0028 |
| CCCATATC | -0.1952 ± 0.0016 |
| GCTTCTAA | -0.0548 ± 0.028 |
| CGCAACAA | -0.00407 ± 0.067 |

| Sequence | PBM E-score of 8-mer |
| --- | --- |
| CAAAGTTA | 0.0751 ± 0.038 |
| CTGGTTAC | 0.0223 ± 0.017 |
| ATCTTAAT | -0.145 ± 0.051 |
| CAAGCGAA | -0.0122 ± 0.031 |
| ATTTGGGG | -0.254 ± 0.0029 |
| TCGGCCCA | -0.248 ± 0.033 |
| GGCTCGGA | -0.274 ± 0.014 |
| GAGGCGAC | 0.252 ± 0.034 |
| AGCAACTA | 0.0974 ± 0.13 |
| CCTTAGTC | -0.187 ± 0.028 |
| TCGTTACA | -0.0221 ± 0.077 |
| GGTAGGGA | -0.191 ± 0.051 |
| AAGGCCGG | -0.217 ± 0.014 |
| GCTTAGAA | -0.156 ± 0.026 |
| AATCCATC | -0.0763 ± 0.017 |
| CTGTAGCA | -0.0347 ± 0.061 |
| AGCGTGCC | 0.0452 ± 0.064 |
| ACTGGCTA | -0.191 ± 0.047 |
| CTCAGTAC | -0.145 ± 0.085 |
| GAGTTCCA | -0.14 ± 0.0034 |
| CGCCCCAA | 0.232 ± 0.051 |
| GCTGTCCC | -0.156 ± 0.045 |
| CGTTTCTC | -0.0629 ± 0.075 |
| AGATAGGA | -0.171 ± 0.05 |
| ACATCGAA | -0.0435 ± 0.033 |

| Sequence | PBM E-score of 8-mer |
| --- | --- |
| AGGAGTAG | -0.144 ± 0.12 |
| CAACAAGA | -0.0316 ± 0.0082 |
| AGGACCAA | -0.111 ± 0.046 |
| AACTCCAA | 0.131 ± 0.0017 |
| CATAAAAG | -0.246 ± 0.021 |
| CCACCTAC | 0.248 ± 0.043 |
| ACTTACAT | 0.0724 ± 0.033 |
| AGAAACAC | 0.157 ± 0.037 |
| CCCGCTAC | -0.0498 ± 0.12 |
| AAAAGGAT | -0.0795 ± 0.11 |
| GACGTCAC | 0.159 ± 0.039 |
| ACCATAAC | 0.0602 ± 0.0074 |
| CCTCTGTC | 0.0257 ± 0.037 |
| CACGTAAA | 0.0349 ± 0.065 |
| ACTACCCT | 0.07 ± 0.017 |
| ACCCTTAA | 0.0101 ± 0.039 |
| AGCTGCAC | 0.0807 ± 0.11 |
| GACTCCAC | -0.159 ± 0.076 |
| CTAAGAAA | -0.136 ± 0.081 |
| CCAACCAC | 0.224 ± 0.018 |
| AACTCACA | 0.2436 ± 0.00066 |
| TCGGGCCA | -0.0898 ± 0.084 |
| ACTCTTTG | 0.221 ± 0.066 |
| AGCGTTTG | -0.0532 ± 0.043 |
| GGGCGGGA | 0.0163 ± 0.094 |

| Sequence | PBM E-score of 8-mer |
| --- | --- |
| CGGAGTGC | 0.00458 ± 0.032 |
| ACAGGGGT | -0.0537 ± 0.021 |
| AGCAGCAA | -0.106 ± 0.074 |
| GCAGGCAC | 0.109 ± 0.017 |
| ACGACCGT | -0.0715 ± 0.028 |
| AGGATCGC | 0.119 ± 0.037 |
| CGAGTACA | -0.0204 ± 0.051 |
| ACCAACAC | 0.273 ± 0.0089 |
| CCGTCCAA | -0.0665 ± 0.012 |
| ATGAACTA | -0.0184 ± 0.014 |
| GATGGTGC | 0.0896 ± 0.077 |
| AGGTGCTA | 0.4822 ± 0.0033 |
| ATACGTGA | 0.172 ± 0.011 |
| CCCAGCCA | -0.0443 ± 0.041 |
| ATGTCTAG | -0.0188 ± 0.02 |
| CCTCGGTA | 0.0026 ± 0.008 |
| ACGTCTTC | -0.0674 ± 0.12 |
| ACCTATGC | 0.0424 ± 0.05 |
| CGCGTTAG | 0.307 ± 0.069 |
| ACCCCAGC | -0.0492 ± 0.03 |
| ATTACGAA | -0.192 ± 0.0061 |
| CCCGACAG | 0.0718 ± 0.038 |
| ACGCAAAC | 0.0596 ± 0.0051 |
| CGGCATAG | -0.0343 ± 0.023 |
| TATTTTAA | -0.0888 ± 0.074 |

| Sequence | PBM E-score of 8-mer |
| --- | --- |
| CCCATCAG | -0.2 ± 0.042 |
| AGGCCGGC | -0.0199 ± 0.03 |
| CCCGTTAG | 0.2017 ± 0.0019 |
| ATATGAAT | -0.00217 ± 0.023 |
| TCTCAAGA | -0.0529 ± 0.036 |
| CGTATGGC | -0.0819 ± 0.014 |
| GTCTTGGA | -0.322 ± 0.015 |
| CCGCGCCC | 0.08 ± 0.071 |
| AAGAGTAC | -0.19 ± 0.041 |
| AATAGAGC | -0.239 ± 0.052 |
| GGCCCGGA | -0.188 ± 0.008 |
| CGAGGTCA | 0.0539 ± 0.041 |
| GCTCCCGA | -0.0584 ± 0.032 |
| CAAAATCA | 0.0393 ± 0.049 |
| CGGTGTAG | 0.17 ± 0.083 |
| ATAGTACA | -0.146 ± 0.035 |
| AGCTGCGC | -0.0139 ± 0.044 |
| AGGGAAGG | -0.238 ± 0.0064 |
| TAAATCTA | -0.00768 ± 0.063 |
| CCATTCTC | 0.0958 ± 0.018 |
| ACTTGCGC | 0.15 ± 0.042 |
| AAGCATCA | 0.0413 ± 0.062 |
| ACCACTTC | 0.119 ± 0.01 |
| AACGCAAT | 0.115 ± 0.0013 |
| TCGCTGCA | -0.057 ± 0.069 |

| Sequence | PBM E-score of 8-mer |
| --- | --- |
| CTGGATTA | -0.116 ± 0.033 |
| TTACACAA | 0.152 ± 0.035 |
| CTGTAGAC | -0.0438 ± 0.026 |
| ATACTCGA | -0.0619 ± 0.038 |
| CGCGCGCG | 0.225 ± 0.067 |
| CACGGAAG | 0.17 ± 0.018 |
| GAGCGCGA | 0.279 ± 0.053 |
| AACGTAGC | -0.0485 ± 0.053 |
| ATGACTTA | 0.0301 ± 0.045 |
| GCTGCTCC | -0.0836 ± 0.039 |
| CGCCGTCA | 0.226 ± 0.022 |
| TCCGCTAA | 0.109 ± 0.018 |
| ACCCTTCT | -0.0049 ± 0.025 |
| CGCTGTAC | -0.164 ± 0.046 |
| ACATGGGC | -0.19 ± 0.036 |
| TAGGCAGA | -0.293 ± 0.046 |
| GCTGGGCA | -0.138 ± 0.015 |
| AGGTCCTC | -0.282 ± 0.026 |
| AGCGTGAA | 0.413 ± 0.018 |
| GAGTGATC | 0.00628 ± 0.033 |
| ATTTACGA | -0.0762 ± 0.0035 |
| ATCTGACC | -0.235 ± 0.0079 |
